Paper PMC4165372, “Nutritional status modulates box C/D snoRNP biogenesis by regulated subcellular relocalization of the R2TP complex” (Genome Biology, 2014)
Where two headings read alike, the source gives them in different places. These are yes or no findings as the source states them, for the method shown. In cells and extracts the contact can be indirect. Some binding calls cover weakened binding; strength is not graded here. Tags and fused reporters may be left off the sequences shown. One block for each molecule: values may come before it.

Protein sequences, listed by entry. Tags and fused reporters are not part of them.
UniProt Q12464: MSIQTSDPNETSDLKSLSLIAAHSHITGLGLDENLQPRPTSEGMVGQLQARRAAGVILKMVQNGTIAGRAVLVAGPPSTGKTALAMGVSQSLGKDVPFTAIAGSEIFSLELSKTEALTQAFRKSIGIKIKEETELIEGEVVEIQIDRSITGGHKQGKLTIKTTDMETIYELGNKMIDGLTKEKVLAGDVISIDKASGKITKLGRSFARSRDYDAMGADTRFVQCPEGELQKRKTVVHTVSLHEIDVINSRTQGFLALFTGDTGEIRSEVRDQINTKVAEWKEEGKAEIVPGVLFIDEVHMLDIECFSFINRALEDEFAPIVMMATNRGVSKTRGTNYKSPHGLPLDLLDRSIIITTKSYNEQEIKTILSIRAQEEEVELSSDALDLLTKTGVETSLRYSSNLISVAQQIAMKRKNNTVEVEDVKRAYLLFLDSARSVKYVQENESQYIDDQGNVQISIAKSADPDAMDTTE
UniProt Q03940: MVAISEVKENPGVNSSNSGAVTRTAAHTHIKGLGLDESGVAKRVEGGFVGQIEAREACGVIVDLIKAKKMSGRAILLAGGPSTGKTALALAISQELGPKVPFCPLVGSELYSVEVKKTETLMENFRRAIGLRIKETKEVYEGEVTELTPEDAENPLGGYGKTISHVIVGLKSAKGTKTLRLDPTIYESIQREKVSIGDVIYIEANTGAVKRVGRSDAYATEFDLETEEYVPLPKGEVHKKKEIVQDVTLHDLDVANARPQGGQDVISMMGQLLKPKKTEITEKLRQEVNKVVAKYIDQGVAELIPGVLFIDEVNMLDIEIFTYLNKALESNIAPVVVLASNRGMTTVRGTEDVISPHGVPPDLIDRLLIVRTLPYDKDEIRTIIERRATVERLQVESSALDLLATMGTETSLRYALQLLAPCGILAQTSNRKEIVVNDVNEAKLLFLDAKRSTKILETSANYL

What was measured:
[1] = biological target: T1, Nop1-FLAG (S. cerevisiae) (UniProt P15646); experiment: co-IP; FLAG pulldown: anti-FLAG (M2) beads on soluble lysate of endogenously C-terminal 3xFLAG-tagged yeast strains, log phase; buffer H with 0.1 M KCl, washes with 0.3 or 0.5 M KCl, FLAG peptide elution; Western blot or silver stain; also lysate treated with RNase A or DNase I, pih1Δ or tah1Δ background, rapamycin, Nup53 or Nup53-CΔ overexpression, bead-bound Nop58-FLAG complex with or without 4 mM ATP
T1 sequence: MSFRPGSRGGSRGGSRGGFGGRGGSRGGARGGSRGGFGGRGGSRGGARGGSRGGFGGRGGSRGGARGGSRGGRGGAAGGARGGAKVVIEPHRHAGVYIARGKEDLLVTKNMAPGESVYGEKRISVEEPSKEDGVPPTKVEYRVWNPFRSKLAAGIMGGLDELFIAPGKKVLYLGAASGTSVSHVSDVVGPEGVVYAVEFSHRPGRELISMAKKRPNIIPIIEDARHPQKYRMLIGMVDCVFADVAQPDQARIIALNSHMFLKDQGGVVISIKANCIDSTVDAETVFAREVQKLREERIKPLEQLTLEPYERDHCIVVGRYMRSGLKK

[2] = biological target: T2, Nop56-FLAG (S. cerevisiae) (UniProt Q12460); experiment: as above
T2 sequence: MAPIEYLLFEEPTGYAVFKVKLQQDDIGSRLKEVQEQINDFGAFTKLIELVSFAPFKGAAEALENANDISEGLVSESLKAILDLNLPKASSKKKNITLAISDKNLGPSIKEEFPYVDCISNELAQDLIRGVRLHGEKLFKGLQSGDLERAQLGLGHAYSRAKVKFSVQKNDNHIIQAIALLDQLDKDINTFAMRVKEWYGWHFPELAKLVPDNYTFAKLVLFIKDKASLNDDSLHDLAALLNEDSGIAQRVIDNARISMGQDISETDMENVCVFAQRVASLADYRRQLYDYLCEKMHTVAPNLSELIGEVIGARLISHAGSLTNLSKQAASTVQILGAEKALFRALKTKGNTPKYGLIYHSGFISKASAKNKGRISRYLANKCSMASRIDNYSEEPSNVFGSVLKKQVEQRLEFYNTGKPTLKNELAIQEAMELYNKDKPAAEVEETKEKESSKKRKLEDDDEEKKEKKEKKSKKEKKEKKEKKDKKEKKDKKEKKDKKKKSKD

[3] = biological target: T3, Snu13-FLAG (S. cerevisiae) (UniProt P39990); experiment: as above
T3 sequence: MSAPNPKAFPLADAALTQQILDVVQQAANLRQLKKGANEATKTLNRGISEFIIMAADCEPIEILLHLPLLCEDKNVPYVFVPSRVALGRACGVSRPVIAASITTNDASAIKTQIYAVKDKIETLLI

[4] = biological target: T4, Nop58(1–511)-FLAG (S. cerevisiae) (UniProt Q12499); experiment: co-IP; FLAG pulldown: anti-FLAG beads on lysate of yeast overexpressing p416GAL Nop58-FLAG subdomain constructs after galactose induction (6 h, 30°C); Western blot
T4 sequence: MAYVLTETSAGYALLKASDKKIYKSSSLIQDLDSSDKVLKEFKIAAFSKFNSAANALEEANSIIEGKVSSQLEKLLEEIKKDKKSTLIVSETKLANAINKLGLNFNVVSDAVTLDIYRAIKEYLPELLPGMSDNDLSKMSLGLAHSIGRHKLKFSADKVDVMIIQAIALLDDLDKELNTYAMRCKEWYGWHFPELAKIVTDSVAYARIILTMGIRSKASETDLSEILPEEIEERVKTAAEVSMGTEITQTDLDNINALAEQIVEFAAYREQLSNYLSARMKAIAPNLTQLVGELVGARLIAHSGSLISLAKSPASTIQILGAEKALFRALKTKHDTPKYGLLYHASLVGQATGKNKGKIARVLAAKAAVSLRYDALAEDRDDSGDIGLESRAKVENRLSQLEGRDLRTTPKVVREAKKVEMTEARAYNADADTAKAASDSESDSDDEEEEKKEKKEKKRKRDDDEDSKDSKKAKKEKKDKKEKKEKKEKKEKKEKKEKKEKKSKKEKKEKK

[5] = biological target: T5, Nop58(285–447)-FLAG (S. cerevisiae) (UniProt Q12499); experiment: as above
T5 sequence: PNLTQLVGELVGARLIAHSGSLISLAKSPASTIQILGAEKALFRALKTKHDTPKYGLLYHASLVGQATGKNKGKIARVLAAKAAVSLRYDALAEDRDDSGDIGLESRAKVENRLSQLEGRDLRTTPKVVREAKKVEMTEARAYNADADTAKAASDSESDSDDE

[6] = biological target: T6, Nop58(285–511)-FLAG (S. cerevisiae) (UniProt Q12499); experiment: as above
T6 sequence: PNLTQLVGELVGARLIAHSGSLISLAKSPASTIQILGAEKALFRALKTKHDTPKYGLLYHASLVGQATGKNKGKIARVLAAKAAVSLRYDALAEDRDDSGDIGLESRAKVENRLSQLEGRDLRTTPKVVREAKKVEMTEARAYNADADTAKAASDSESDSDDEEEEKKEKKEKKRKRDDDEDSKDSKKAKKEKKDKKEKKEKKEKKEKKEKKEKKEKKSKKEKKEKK

[7] = biological target: T7, Nop58(345–447)-FLAG (S. cerevisiae) (UniProt Q12499); experiment: as above
T7 sequence: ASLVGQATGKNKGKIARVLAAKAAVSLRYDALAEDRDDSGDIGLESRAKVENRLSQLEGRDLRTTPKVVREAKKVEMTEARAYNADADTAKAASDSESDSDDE

[8] = biological target: T8, Nop58(345–511)-FLAG (S. cerevisiae) (UniProt Q12499); experiment: as above
T8 sequence: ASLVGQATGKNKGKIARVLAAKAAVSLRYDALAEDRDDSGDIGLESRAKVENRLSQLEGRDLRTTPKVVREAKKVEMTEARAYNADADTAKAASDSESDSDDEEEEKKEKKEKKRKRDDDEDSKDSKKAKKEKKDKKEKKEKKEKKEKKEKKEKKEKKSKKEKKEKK

[9] = biological target: T9, Nop58-FLAG (S. cerevisiae) (UniProt Q12499); experiment: co-IP; FLAG pulldown: anti-FLAG (M2) beads on soluble lysate of endogenously C-terminal 3xFLAG-tagged yeast strains, log phase; buffer H with 0.1 M KCl, washes with 0.3 or 0.5 M KCl, FLAG peptide elution; Western blot or silver stain; also lysate treated with RNase A or DNase I, pih1Δ or tah1Δ background, rapamycin, Nup53 or Nup53-CΔ overexpression, bead-bound Nop58-FLAG complex with or without 4 mM ATP
T9 sequence: T4 sequence

[10] = biological target: T1, Nop1-FLAG (S. cerevisiae); experiment: as above; remark: listed apart in the source
[11] = biological target: T2, Nop56-FLAG (S. cerevisiae); experiment: as above; remark: listed apart in the source
[12] = biological target: T3, Snu13-FLAG (S. cerevisiae); experiment: as above; remark: listed apart in the source

Molecule: Rvb2 (from UniProt Q12464 1-471)
binding [1]: binds weakly
binding [2]: binds weakly
binding [3]: binds weakly

Molecule: Rvb1 (from UniProt Q03940 1-463)
binding [1]: binds weakly
binding [2]: binds weakly
binding [3]: binds weakly

B3: Nop1 (protein, UniProt P15646 1-327)
chain: T1 sequence
binding [5]: no binding
binding [6]: binds
binding [7]: no binding
binding [8]: no binding

B4: Nop56 (protein, UniProt Q12460 1-504)
chain: T2 sequence
binding [4]: binds
binding [5]: no binding
binding [6]: binds
binding [7]: no binding
binding [8]: no binding
binding [9]: binds

Further lines, results first:

binding [4]: binds
binding [5]: no binding
binding [6]: binds
binding [7]: no binding
binding [8]: no binding
binding [9]: binds
B1: Snu13 (protein, UniProt P39990 1-126)
chain: T3 sequence

binding [10]: no binding
binding [11]: no binding
binding [12]: no binding
B2: full-length Pih1 (natural protein, S. cerevisiae, UniProt P38768 1-344, looked up)
chain: MADFLLRPIKQRHRNEDKYVSVDAADGSVSKIEPIADFVIKTKLLSANGPEKLQDGRKVFINVCHSPLVPKPEVDFNARIVFPLIIQNEWEIPIITSCYRMDHDKKGQECYVWDCCINSDCSRWICDDIQLREILVEWCLESCEIRDSVVLCRDRIAFPKMKKKGAELPALEVLNDELHQDYKAKMHKIIEEEAGDPMSILRGRNDDGDDNNDPDDGTLPPLFPIENKISGAKIEEIDKNEIAHRNLKQAPAPAPAPHEQQEDVPEYEVKMKRFKGAAYKLRILIENKAPNSKPDRFSPSYNFAENILYINGKLSIPLPRDIVVNAADIKIFHIRKERTLYIYI
notes: Pih1, S. cerevisiae, 344 amino acids
